The results in this text go back to the supplement of paper PMC10338343.

± gives the standard deviation. This is a selection; strong and weak results do not stand in their true shares.
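Further: 1 nM active piRISC with 0.1 nM target library at 33 °C single turnover.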

The assay deals with MIWI (PIWIL1) piRISC loaded with piRNA #1 (30 nt). In words: pre-steady-state target cleavage rate (min^-1); MIWI and MILI are mouse PIWI proteins and EfPiwi is from a freshwater sponge; tags in brackets are library labels; higher = faster piRNA-guided slicing of the target. The conditions noted are these: guide: piRNA #1 5'p-UGAGGUAGUAGGUUGUAUAGUAUCCAGAGG; auxiliary factor: 500 nM mouse GTSF1. In a few lines: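 In this Cleave-'n-Seq assay, uncleaved targets were sequenced and normalised to depth and to weakly complementary targets. They came from a transcribed, DNA-blocked target RNA library […] mixed with 1 nM active affinity-purified piRISC carrying one synthetic guide, with or without 500 nM GTSF1 partner protein, in HEPES–potassium acetate buffer at 33 °C for 0–8 or 0–960 min. After three trials were pooled and k3 was capped at 0.0001 min^-1, the pre-steady-state cleavage rate was obtained from a burst-and-steady-state fit.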
For GGAGACCAUACUAUACAACCUACUACAUCA, the “pre-steady-state target cleavage rate” value was 1.35 ± 0.072.

Turning to GGUCUGGAUACUAAACAACCUACUACCACA, the “pre-steady-state target cleavage rate” value is 0.814 ± 0.066.

For the sequence GGAGACCAAACUAUACAACCUACUACCUGA, the “pre-steady-state target cleavage rate” value amounted to 0.641 ± 0.1.

Consider GCCUCUGGAUACUAUACAACCUACUACCUCA, for which the “pre-steady-state target cleavage rate” value came to 1.89 ± 0.12.

Regarding GGAGUGGAUACUAUACAUCCUACUACCUGA, the “pre-steady-state target cleavage rate” value was 0.148 ± 0.028.

Regarding GGACUGGAUAUCUAUACAACCUACUACCUCA, the “pre-steady-state target cleavage rate” value amounted to 0.777 ± 0.067.

For the sequence CCUGUGGAUACUAUACAACCUACUUCCUCA, the “pre-steady-state target cleavage rate” value turned out to be 0.0178 ± 0.006.

For GGAGAGGAUACUAUUCAACCUACUACCACA, the “pre-steady-state target cleavage rate” value worked out at 1.02 ± 0.059.

As to GGAGUGGAUACUAUUCAACCUAGUACCUCA, the “pre-steady-state target cleavage rate” value amounted to 0.351 ± 0.045.

Regarding GGAGACCAUACUAUACAACGUACUACCACA, the “pre-steady-state target cleavage rate” value came to 0.68 ± 0.059.

For GGAGACCUAAGUAUACAACCUACUACCUGA, the “pre-steady-state target cleavage rate” value was determined as 0.0479 ± 0.014.

As for GGACUGGAUACUAUUCAACCUACUAGCUCA, the “pre-steady-state target cleavage rate” value worked out at 0.029 ± 0.0064.

As to GGAGAGGAUACUAUACAACGUACUACCACA, the “pre-steady-state target cleavage rate” value turned out to be 0.529 ± 0.055.

Regarding GGAGAGGAUACUAUACAACCUACAUGCUCA, the “pre-steady-state target cleavage rate” value is 0.123 ± 0.028.

For the sequence GCUCUGGAUACUAUACUACCUUCUACCUCA, the “pre-steady-state target cleavage rate” value worked out at 0.268 ± 0.024.

Regarding CCUCUGGAUACUAUAGAUCCUACUACCUCA, the “pre-steady-state target cleavage rate” value was 1.38 ± 0.085.

In the case of GGUCUGGAUUGUAUACAACCUACUACCUCA, the “pre-steady-state target cleavage rate” value is 0.795 ± 0.051.

For the sequence GGAGACCUAUCUAUAGAACCAACUACCUCA, the “pre-steady-state target cleavage rate” value was found to be 0.00622 ± 0.0013.

GGACUGGAUACUAUACAAGCAACUACCUCA: the “pre-steady-state target cleavage rate” value amounted to 0.0227 ± 0.0035.

On to GGACUGGAUACUAUACAACCUUCAACCUCA, for which the “pre-steady-state target cleavage rate” value was 0.138 ± 0.028.

Take GCUCUGGAUACUAAACAACCUACUACGUCA: the “pre-steady-state target cleavage rate” value is 1.2 ± 0.073.

For the sequence GGAGACGAAACUAUACUACCUACUACCUCA, the “pre-steady-state target cleavage rate” value is 0.484 ± 0.041.

On to CCACUGGAUACUAUACAACCUACUACGUCA, for which the “pre-steady-state target cleavage rate” value was found to be 1.46 ± 0.088.

Take CCUCUGGAUACUAAACAACCUUCUACCUCA: the “pre-steady-state target cleavage rate” value is 0.626 ± 0.037.

Take GGAGACCUAACUAUACAACGUACUUCCUCA: the “pre-steady-state target cleavage rate” value came out at 0.0216 ± 0.007.

Regarding GCUCUGGAUACUAUACAAUCCUACUACCUCA, the “pre-steady-state target cleavage rate” value amounted to 0.00658 ± 0.0041.

For the sequence GGACUCGAUACUAUACAACCUACUACCUGA, the “pre-steady-state target cleavage rate” value is 0.638 ± 0.13.

For the sequence GGAGACCUUACUAAACAACCUACUAGCUCA, the “pre-steady-state target cleavage rate” value turned out to be 0.301 ± 0.043.

GGAGACCUAUGAUUACAACCUACUAGCACA: the “pre-steady-state target cleavage rate” value is < 0.0001.

In the case of GGAGAGGAAACUAUACAAGCUACUACCUCA, the “pre-steady-state target cleavage rate” value worked out at 0.438 ± 0.034.

Take GGACAGGAUUCUAUACAACCUACUACCUCA: the “pre-steady-state target cleavage rate” value was 1.56 ± 0.097.

As to GGAGACCAUACUAUACAACCUACUACCUGA, the “pre-steady-state target cleavage rate” value came to 1.03 ± 0.076.

As to GGACUGCAUACUAUACAACCAACUACCUCA, the “pre-steady-state target cleavage rate” value is 0.088 ± 0.0079.

GCACUGGAUACUUUACAACCUACUACCUCA: the “pre-steady-state target cleavage rate” value came to 1.75 ± 0.11.

Regarding GGAGACCUAUGUUAACAACCUACUACCUCA, the “pre-steady-state target cleavage rate” value came to 0.00404 ± 0.0029.

On to GGAGAGGAUACUAUACAAGCUACAACCUCA, for which the “pre-steady-state target cleavage rate” value was 0.296 ± 0.04.

GGAGAGGAUACUUUACAACCUACAACCUCA: the “pre-steady-state target cleavage rate” value was 0.34 ± 0.049.

As for GGAGACCAACUAUACAACCUACUACCUCA, the “pre-steady-state target cleavage rate” value is 1.65 ± 0.13.

With GGAGACCAAACUUUACAACCUACUACCUCA, the “pre-steady-state target cleavage rate” value turned out to be 0.403 ± 0.082.

Consider GGAGACCAUACUAUAUCAACCUACUACCUCA, for which the “pre-steady-state target cleavage rate” value is 0.0917 ± 0.016.
